# Reference: PMC4336329 (PLoS ONE, 2015)
# The whole screen tested about 310,000 compounds, of which about 2,200 (0.71%) showed an effect of 50% or more. The effect is printed as a negative number. The list shows a part of the results.
# Molecular target: human ether-à-go-go-related gene (hERG) potassium channel (human, UniProt Q12809)
# Assay: primary screen, population patch clamp on CHO cells stably expressing hERG
# human ether-à-go-go-related gene (hERG) potassium channel, sequence (Q12809 whole entry, looked up): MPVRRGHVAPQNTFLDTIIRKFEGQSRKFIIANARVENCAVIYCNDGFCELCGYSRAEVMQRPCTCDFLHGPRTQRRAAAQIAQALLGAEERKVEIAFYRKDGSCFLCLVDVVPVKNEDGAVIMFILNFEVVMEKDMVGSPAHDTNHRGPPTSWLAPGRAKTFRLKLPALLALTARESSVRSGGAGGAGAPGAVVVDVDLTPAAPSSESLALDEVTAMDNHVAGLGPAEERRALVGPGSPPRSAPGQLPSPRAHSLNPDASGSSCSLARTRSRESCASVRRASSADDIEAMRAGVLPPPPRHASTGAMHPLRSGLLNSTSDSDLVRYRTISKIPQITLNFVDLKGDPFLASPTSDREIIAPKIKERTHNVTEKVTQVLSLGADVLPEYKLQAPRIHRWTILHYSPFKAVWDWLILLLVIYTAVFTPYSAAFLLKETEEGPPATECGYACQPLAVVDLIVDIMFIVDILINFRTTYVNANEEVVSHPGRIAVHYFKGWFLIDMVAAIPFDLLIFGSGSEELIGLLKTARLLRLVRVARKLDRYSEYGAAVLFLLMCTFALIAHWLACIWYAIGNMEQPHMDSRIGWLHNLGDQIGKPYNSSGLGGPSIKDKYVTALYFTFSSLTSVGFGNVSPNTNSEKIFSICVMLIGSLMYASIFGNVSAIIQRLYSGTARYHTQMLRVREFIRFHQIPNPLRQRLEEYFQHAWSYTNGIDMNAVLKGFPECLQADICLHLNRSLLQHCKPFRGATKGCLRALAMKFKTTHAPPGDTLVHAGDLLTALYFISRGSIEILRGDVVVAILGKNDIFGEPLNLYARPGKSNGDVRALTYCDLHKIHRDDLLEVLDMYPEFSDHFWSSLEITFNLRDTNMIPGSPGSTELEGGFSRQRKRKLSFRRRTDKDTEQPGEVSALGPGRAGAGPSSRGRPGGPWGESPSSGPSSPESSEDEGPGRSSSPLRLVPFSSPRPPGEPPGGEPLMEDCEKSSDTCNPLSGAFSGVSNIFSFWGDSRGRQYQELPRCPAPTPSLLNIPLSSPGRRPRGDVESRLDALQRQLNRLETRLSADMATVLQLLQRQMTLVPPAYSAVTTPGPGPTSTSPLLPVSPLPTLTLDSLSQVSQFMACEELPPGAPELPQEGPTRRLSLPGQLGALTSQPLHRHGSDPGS
row,SMILES,"hERG current change (%, negative = inhibition) at 1uM [%]"
1,Cc1nn(-c2ccccc2)nc1C(=O)Nc1ccc2c(c1)OCCO2,6.18
2,CCSc1nc(C2CC2)cc(-c2ccco2)c1C#N,11
3,CCN(CC)CCNc1ncnc2c1sc1nc(N3CCOCC3)c3c(c12)CCCC3,4.99
4,O=C(NC(=S)Nc1ccccc1)c1cc([N+](=O)[O-])ccc1N1CCOCC1,16.5
5,CCOP(=O)(OCC)C(O)c1ccccc1 (stereo not shown),15.4
6,NS(=O)(=O)c1ccc(CCNC(=S)Nc2ccc(S(N)(=O)=O)cc2)cc1,9.85
7,Cc1ccc2nc(-c3ccsc3)c(NC3CCCC3)n2c1,15
8,Cc1ccccc1-c1nn2c(-c3ccccc3)nnc2s1,6.92
9,CCOC(=O)C1(CCOc2ccccc2)CCN(Cc2cccc3nonc23)CC1,2.95
10,CCCCn1c(N)c(NCC(C)C)c(=O)[nH]c1=O,16.3
11,O=C(COC(=O)c1cc(S(=O)(=O)N2CCOCC2)ccc1Cl)NCc1ccc2c(c1)OCO2,9.97
12,COc1cccc(NC(=O)CN(C)CC(=O)Nc2ccc3c(c2)CCC3)c1,11.7
13,Cc1cccc2cc(CN(Cc3ccco3)S(=O)(=O)c3ccc4c(c3)OCCO4)c(=O)[nH]c12,10.5
14,CC(C)NC(=O)COc1ncnc2sccc12,11.6
15,CCOCCn1c(C(C)O)nc2ccccc21 (stereo not shown),10.3
16,O=C(COC(=O)Cc1cccs1)NCC(=O)Nc1ccc(F)cc1,0.811
17,O=C1/C(=C\c2ccsc2)N2CCC1CC2,8.62
18,Cc1ccc2[nH]c(=O)c(CN(CCN3CCOCC3)C(=O)Nc3ccc(F)cc3)cc2c1,-13.4
19,O=C(NCCCN1CCCC1=O)C(=O)NCC1OCCN1S(=O)(=O)c1ccc(Br)cc1 (stereo not shown),12.7
20,O=C(CSc1nnc(-c2ccco2)o1)NCC(=O)c1ccccc1,-1.65
21,CCn1c(SCC(=O)Nc2cccc(NC(C)=O)c2)nnc1C(C)C,14.2
22,COCCc1nc2ccc(C(=O)N3CCCC(CCCO)C3)cc2o1 (stereo not shown),16.9

row,SMILES,"hERG current change (%, negative = inhibition) at 1uM [%]"
1,Cc1nc2c(nnn2Cc2c(Cl)cccc2Cl)c(=O)[nH]1,13.9
2,CN(C)CCNCc1ccccc1OC1CCCC1.Cl,0.0121
3,CCN(CC(=O)NCc1cccs1)C(=O)c1ccc(OC)c(OC)c1,10.7
4,CN(C)S(=O)(=O)c1ccc(/C(O)=C2/C(=O)C(=O)N(Cc3cccnc3)C2c2ccncc2)cc1 (stereo not shown),22.9
5,Cc1ccc(S(=O)(=O)N2CCCN(c3nccc(C(F)(F)F)n3)CC2)cc1,10
6,Cc1ccc(C(=O)CCC(=O)OC(C)C(=O)NC2CCCCC2C)cc1 (stereo not shown),6.25
7,O=C(NCCCN1CCCC1)c1ccc2c(Cl)c3c(nc2c1)CCCC3,-1.92
8,COc1ccccc1OC(=O)c1ccc(SC)cc1OC,-9.71
9,COc1ccc(/C=C\C(=O)c2c(O)ccc3c(C)cc(=O)oc23)cc1OC,5.82
10,CCOC(=O)Cn1cnc2c(cnn2-c2ccccc2)c1=O,8.5
11,Cc1ccc(NC(=O)CSc2nccn(-c3ccc4c(c3)OCCO4)c2=O)cc1,-0.57
12,CCOc1ccc(NC(=O)c2cccs2)c([N+](=O)[O-])c1,8.08
13,CCOC(=O)[C@H]1[C@H]2COc3ccc(Br)cc3[C@@H]2N2C(=O)CN(Cc3ccc(OC)cc3)C(=O)[C@@]12C,17.6
14,CCCc1cc(=O)oc2cc(OCC(=O)N3C[C@H]4C[C@@H](C3)c3cccc(=O)n3C4)c(Cl)cc12,7.62
15,Cc1cc(/C=N\NC(=O)CC(=O)NC2CCCCC2)c(C)n1-c1ccc(Cl)c(Cl)c1,11.9
16,Cn1cccc1CC(=O)N/N=C\c1cccs1,14.5
17,CN(CC(=O)Nc1ccc(Cl)cc1)CC(=O)Nc1ccc(C(N)=O)cc1,15.3
18,Cc1cccn2cc(-c3ccc(NC(=O)Cc4ccccc4)cc3)nc12,12.7
19,O=C(c1ccc(CS(=O)Cc2ccc(Cl)cc2)o1)N1CCN(c2ccccc2)CC1 (stereo not shown),-4.21
20,COc1cc(NC(=O)CSc2nc3c(c(=O)[nH]2)CCCC3)cc(OC)c1OC,2.7
21,CC1C2C(C)N(C)C(=O)N(C)C2N(C)C(=O)N1C (stereo not shown),21
22,CCOC(=O)C(CC)(CCC(=O)O)c1csc(N)n1 (stereo not shown),23.7

row,SMILES,"hERG current change (%, negative = inhibition) at 1uM [%]"
1,CCOC(=O)N1CCN(c2ccc(S(=O)(=O)N(Cc3ccccc3)Cc3ccccc3)cn2)CC1,0.388
2,CC(C)c1ccccc1NC(=O)c1ccc(CN(c2ccccc2)S(=O)(=O)c2ccccc2)cc1,10.2
3,C=CCn1c(SCC(N)=O)nnc1-c1cccc(Br)c1,-1.54
4,CC1Nc2ncnc(N3CCN(c4ccccn4)CC3)c2N(Cc2ccccc2)C1=O.O=C(O)C(F)(F)F (stereo not shown),1.57
5,N#Cc1ccc(C(=O)Nc2nc3ccccc3[nH]2)cc1,17.7
6,CN(C)/C=C1/C=C(C=O)OC1=O,11
7,Cn1c(NC(=O)c2ccccc2NC(=O)C(C)(C)C)nc2ccccc21,8.42
8,O=C(Nc1nc2ccc(Cl)cc2s1)c1ccc(Br)o1,1.05
9,COc1cc([C@@H]2CC=C(C(=O)O)CN2S(=O)(=O)c2ccc(C)cc2)cc(OC)c1OC,19.1
10,CC1CCCCN1CCNC(=O)C1CCCN(c2ncnc3c2nc2n3CCCCC2)C1 (stereo not shown),7.1
11,CC1CCN(S(=O)(=O)c2ccc3ncn(CC(=O)N(C)Cc4ccccc4)c(=O)c3c2)CC1,-3.54
12,Cn1c(=O)c(=O)n(C)c2cc(S(=O)(=O)N3CCN(c4cccc(C(F)(F)F)c4)CC3)ccc21,-0.29
13,Cc1cc(C)cc(NC(=O)CN(C)CC(=O)N(CC(C)C)c2c(N)n(CC(C)C)c(=O)[nH]c2=O)c1,5.88
14,COc1ccnc(N2CCN(c3ccccc3)CC2)c1C#N,17.2
15,O=c1c2ccccc2oc2cc(NCCCN3CCOCC3)ccc12,5.41
16,O=C(N[C@@H](Cc1c[nH]c2ccccc12)C(=O)O)C1CCN(S(=O)(=O)c2cccs2)CC1,12.2
17,CCOC(=O)c1c(-c2ccccc2)csc1NC(=O)CCN1C(=O)c2ccccc2C1=O,13
18,CCN(CC)C(=O)CN1C(=O)c2cccc3cccc1c23,14
19,O=C(N/N=C/c1cccnc1)c1ccccc1OCc1ccc(Cl)cc1,5.37
20,CCOc1ccc(OCC(=O)Nc2nccs2)cc1,20.1
21,O=C(NCc1ccc2c(c1)OCO2)C1CCCN(S(=O)(=O)c2cccc3cccnc23)C1 (stereo not shown),2.31
22,Br.Fc1ccc(-c2csc(NC3=NCCC3)n2)cc1,-1.99

row,SMILES,"hERG current change (%, negative = inhibition) at 1uM [%]"
1,Cc1oc(=O)c(NC(=O)c2ccccc2)cc1C(C)O (stereo not shown),21.9
2,COc1ccc(C(C(=O)NC2CCCCC2)N(C(=O)c2ccco2)c2ccccc2OC)cc1 (stereo not shown),11.2
3,CCOC(=O)C(NC(C)=O)C(OC(C)=O)c1cccc(N(CCO)CCO)c1 (stereo not shown),16.2
4,CC1CCC2(CC1)NC(=O)N(CC(=O)NC(=O)NC1CCCC1)C2=O (stereo not shown),12.2
5,CCOC(=O)N1CCN(C(=O)c2ccc([N+](=O)[O-])cc2Cl)CC1,6.8
6,CN1CC(=O)N2C(c3ccc(Cl)cc3)c3[nH]c4ccccc4c3C[C@H]2C1=O (stereo partly shown),6.68
7,O=C(CSCc1ccc(Cl)cc1)Nc1cccc(C(=O)Nc2ccccc2C(=O)O)c1,16.4
8,COc1ccc2ccccc2c1/C=N/NC(=O)c1ccc(C)nc1,10.3
9,O=C(NC1CCCN(Cc2ccc(Cl)cc2)C1)c1cccc(F)c1 (stereo not shown),-18.6
10,CCOc1cccc(OCCn2cnc3ccccc3c2=O)c1,7.46
11,CC(=O)N/C(=C/c1ccc2c(c1)OCO2)C(=O)Nc1ccccc1,-13.5
12,CC1=CCC(C(=O)O)C(C(=O)Nc2cccnc2)C1 (stereo not shown),5.97
13,O=C(Cn1cnc([N+](=O)[O-])n1)NCCO,14.6
14,CC1([N+](=O)[O-])COC2(OC1)C(=O)Nc1ccccc12 (stereo not shown),12.9
15,COc1ccc(/C=C/C(=O)OCC(=O)Nc2ccc(Cl)cn2)cc1,12.4
16,Br.CC(C)(C)c1cc(C2=CSC3=NCCN23)cc(C(C)(C)C)c1O,-36.9
17,Cc1nc2cc(-c3ccccc3)[nH]n2c(=O)c1C,12
18,COCCCn1c2nc3ccccc3nc2c2c(=O)n(Cc3cccs3)cnc21,8.65
19,CC(=O)C(Cc1ccccc1)(Cc1ccccc1)C(C)=O,16
20,NC(=O)c1c(NC(=O)CSc2nnc(-c3ccccc3)n2CC2CCCO2)sc2c1CCC2 (stereo not shown),-3.04
21,O=C(Cc1ccccc1)OCC(=O)N1CCN(S(=O)(=O)c2ccc(Cl)cc2)CC1,2.26
22,O=C(OCc1c(F)cccc1Cl)c1cnc(Cl)c(Cl)c1,11.2
